# Results: the supplement of paper PMC4166925
# ± gives the standard deviation of the averaged measurements. Over roughly 33,000 sequences, “E-score (dimensionless, -0.5 to 0.5)” has its median near -0.046; the highest 2% begin near 0.36. The list shows a part of the results.
# Tested on: T1, SpTbr T-box DNA-binding domain (GST fusion)
# T1 sequence: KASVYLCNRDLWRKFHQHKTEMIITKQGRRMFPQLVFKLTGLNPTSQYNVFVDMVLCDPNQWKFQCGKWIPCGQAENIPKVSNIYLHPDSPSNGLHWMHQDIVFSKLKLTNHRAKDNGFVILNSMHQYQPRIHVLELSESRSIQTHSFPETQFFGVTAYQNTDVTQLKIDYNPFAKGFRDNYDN
# Assay: PBM E-score of 8-mer (E-score (dimensionless, -0.5 to 0.5)); Tbr is Tbrain of the sea star Patiria miniata (Pm) or the sea urchin Strongylocentrotus purpuratus (Sp); higher = stronger binding preference; most listed sequences are background and not binding sites
# Conditions: the construct has about 5 more residues each side
# Outline: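 GST-fused Tbr T-box DNA-binding domains (the whole T-box plus about five flanking residues) were expressed in BL21 E. coli at 20 °C and purified by glutathione affinity chromatography. Universal Agilent oligonucleotide arrays were made double-stranded by primer extension, incubated with 200 nM protein in PBS (pH 7.5), then scanned and quantified. Every ungapped 8-mer was scored from probe intensities. The Universal PBM Analysis Suite gave each word an enrichment E-score, averaged over duplicate arrays.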
row,Sequence,PBM E-score of 8-mer
1,GGTGCGAC,0.452 ± 0.0081
2,CAATCTAC,-0.0895 ± 0.0061
3,GCTCGGCA,-0.0879 ± 0.036
4,CTGAGTAC,-0.0662 ± 0.0056
5,CCGGCATA,-0.326 ± 0.048
6,CGTCTAAA,-0.0354 ± 0.013
7,AACAATGC,-0.018 ± 0.0069
8,TCTCCACA,0.102 ± 0.021
9,CACTGCGG,-0.0547 ± 0.0084
10,CAGAGGCC,-0.112 ± 0.11
11,GTATGGAC,-0.2818 ± 0.0027
12,GCGCACGA,0.277 ± 0.047
13,GGATATCA,0.049 ± 0.0044
14,AAGACCCT,-0.233 ± 0.0045
15,AAGGACCC,-0.191 ± 0.026
16,GAAAATCC,-0.171 ± 0.075
17,ACGAGATA,0.003 ± 0.08
18,CCTATTCA,-0.0306 ± 0.042
19,AACTCCCC,-0.0113 ± 0.035
20,TCTACTCA,-0.0396 ± 0.04
21,CCGTAATC,-0.196 ± 0.031
22,CACTTGGC,0.212 ± 0.0033

row,Sequence,PBM E-score of 8-mer
1,CCGTCGTA,-0.0573 ± 0.07
2,CCTTAGAG,-0.0243 ± 0.041
3,AGGCGATG,0.197 ± 0.062
4,CGAACTCG,0.137 ± 0.072
5,CCTCAGCA,0.142 ± 0.0032
6,GAGAGGAC,-0.0122 ± 0.035
7,TTATAAAA,-0.224 ± 0.033
8,GAACTGTC,0.186 ± 0.032
9,ACTCGCAG,0.0332 ± 0.026
10,AGGCCTAA,-0.085 ± 0.025
11,AACTCCCA,-0.0267 ± 0.12
12,ACACCTTG,0.4831 ± 0.0013
13,CCCCTGTC,0.00408 ± 0.013
14,CCGTTTTC,-0.0965 ± 0.055
15,ATAATATG,0.0799 ± 0.022
16,ACCTTGTA,0.0453 ± 0.022
17,CACGAAAA,-0.133 ± 0.05
18,GATCCCTA,-0.0535 ± 0.023
19,GTCGGTGA,0.0324 ± 0.0083
20,CAAAACTA,-0.0238 ± 0.00022
21,AAGCTGCC,0.0478 ± 0.00081
22,AATCCTCA,-0.138 ± 0.024

row,Sequence,PBM E-score of 8-mer
1,CGCTATCA,0.229 ± 0.011
2,GGATCGAA,-0.139 ± 0.015
3,CAACCGTA,-0.21 ± 0.02
4,AAATAGCG,0.169 ± 0.013
5,GACGCACC,0.129 ± 0.022
6,CCGAGAAC,0.28 ± 0.016
7,ACGCTGCA,-0.025 ± 0.089
8,AGGATCCA,-0.0697 ± 0.0047
9,AAGCTCAT,-0.137 ± 0.0061
10,CCTCACCC,0.207 ± 0.054
11,GCTCTCAC,0.312 ± 0.028
12,GCAAATCA,0.0985 ± 0.064
13,ATATCGTC,0.134 ± 0.027
14,AACCTCTT,-0.131 ± 0.01
15,AACGCTAC,0.0932 ± 0.059
16,AAGTCCGC,0.133 ± 0.018
17,CTCCGCTA,0.0268 ± 0.034
18,GCTACCGA,0.0542 ± 0.037
19,CGCCTGCC,0.249 ± 0.035
20,AGGTCCGG,-0.307 ± 0.02
21,ACAGAACG,0.0698 ± 0.048
22,GATCGAAA,-0.0305 ± 0.023

row,Sequence,PBM E-score of 8-mer
1,GAAGATTC,-0.0539 ± 0.069
2,AAGAGTTC,-0.159 ± 0.034
3,GAAAGTTC,-0.00821 ± 0.013
4,ATAAGGTA,0.0128 ± 0.0056
5,TCCTTCGA,-0.122 ± 0.016
6,CCGCCTAA,-0.195 ± 0.042
7,GCTGCCGA,0.00876 ± 0.0086
8,GTACTCTA,-0.238 ± 0.074
9,ACAACGCT,0.177 ± 0.073
10,AGTAGGTA,-0.00286 ± 0.076
11,CTTTCGCC,-0.043 ± 0.078
12,GAACACTC,0.00577 ± 0.058
13,CGGTAGAC,-0.244 ± 0.01
14,AATTGCGA,0.239 ± 0.058
15,AACGTCCT,-0.1031 ± 0.00059
16,AGACAAGA,-0.16 ± 0.036
17,TAACACAA,0.256 ± 0.075
18,AGCTTGGA,-0.126 ± 0.093
19,ACAGGTCC,0.0582 ± 0.031
20,AATATCAA,-0.0408 ± 0.087
